Results on 49 compounds are retold here after the supplement of paper PMC7266297.

Where a name gives a salt, the structure may show the parent alone. Some of the results follow. Single values are uncertain, as repeats are few or missing.

For assay [1], the system named is KB-3-1. The assay can be described thus: growth inhibition relative to DMSO control (SRB); cervical cancer cells: KB-3-1 is the parent and KB-V1 overexpresses MDR1; SRB is the sulforhodamine B stain; higher = more growth inhibition. The following applies: 1 µM; 72 h.
The test system of assay [2] is KB-V1. The description is as above. To be noted: 1 µM; 72 h.
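Also: Read-out is SRB optical density at 490 nm, with the control being wells given 0.5% DMSO vehicle, and compound added one day after cells were plated.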

In the case of `CC(=O)O/N=C1\C(=O)N(Cc2cc(Cl)ccc2Cl)c2ccc(Cl)cc21`, the growth inhibition in assay [1] is 5.75%; in assay [2], below 0%.

For the compound `NC(=O)c1ccc(N(C(N)=O)c2c(F)cccc2F)nc1-c1ccc(F)cc1F`, the growth inhibition was 18.3% in assay [1] and below 0% in assay [2].

As to `Nc1cc(C(F)(F)F)c(-c2cc(N3CCOCC3)nc(N3CCOCC3)n2)cn1` [BKM120 (NVP-BKM120, Buparlisib)], the results for the growth inhibition in assay [1] and in assay [2] were 63% and 62.6%, respectively.

`COc1ccc(-n2nc(C(N)=O)c3c2C(=O)N(c2ccc(N4CCCCC4=O)cc2)CC3)cc1` [Apixaban]: the growth inhibition stood at 29.9% in assay [1] and 14.7% in assay [2].

Turning to `CN(C)Cc1cccc(N=C(c2ccccc2)c2c(O)[nH]c3cc(C(=O)N(C)C)ccc23)c1`, the growth inhibition turned out to be 19.7% in assay [1] and 18.8% in assay [2].

Turning to `CC(C)n1nc(-c2ccc3oc(N)nc3c2)c2c(N)ncnc21`, the figures for the growth inhibition in assay [1] and in assay [2] were 80.2% and 85.2%, respectively.

In the case of `CN1CCN(c2nc(C3=C(c4c[nH]c5ccccc45)C(=O)NC3=O)c3ccccc3n2)CC1` [Sotrastaurin], the growth inhibition in assay [1] came to 10.3%; in assay [2], 28.4%.

Regarding `CCN(CC)C(=O)/C(C#N)=C/c1cc(O)c(O)c([N+](=O)[O-])c1` [Entacapone], the growth inhibition was below 0% in assay [1] and 9.04% in assay [2].

On to `O=C1c2ccccc2C(=O)c2c1ccc(O)c2O` [Alizarin], for which the growth inhibition in assay [1] turned out to be 28.7%; in assay [2], 5.32%.

Regarding `CCc1ccc(OCc2ccccc2C(=O)Nc2ccc3nc(C)cc(N)c3c2)cc1`, the values for the growth inhibition in assay [1] and in assay [2] were 70.4% and 80.4%, respectively.

On to `Cc1cnc(Nc2ccc(N3CCN(C)CC3)cc2)nc1Nc1cccc(S(=O)(=O)NC(C)(C)C)c1`, for which the growth inhibition was below 0% in assay [1] and 26.9% in assay [2].

As for `COc1ccc([C@H]2CNC(=O)C2)cc1OC1CCCC1` [S- (+)-Rolipram], the growth inhibition in assay [1] is below 0%; in assay [2] it was 47.7%.

As for `CC(=O)NS(=O)(=O)c1ccc(N)cc1` [Sulfacetamide Sodium], the growth inhibition in assay [1] amounted to 20%; in assay [2], 1.41%.

`COc1ccc2c(c1)c(CC(=O)N1CCOCC1)c(C)n2C(=O)c1ccc(Cl)cc1`: the growth inhibition in assay [1] stood at 10.3%; in assay [2], 10.8%.

Take `Cn1cc(-c2ccc3nnc(Sc4ccc5ncccc5c4)n3n2)cn1`: the growth inhibition in assay [1] came to 12%; in assay [2], 29%.

Take `Cc1cnc(NC(=O)Nc2cc(Br)c(C)cc2OC[C@@H]2CNCCO2)cn1`: the growth inhibition in assay [1] is 32.2%; in assay [2] it was 6.38%.

Regarding `COc1ccc(-c2nc(N3CCOCC3)c3sc(CN(C)c4ncc(C(=O)NO)cn4)cc3n2)cn1`, the growth inhibition turned out to be 100% in assay [1] and 94.5% in assay [2].

With `O=C(C[S+]([O-])Cc1ccco1)NC/C=C\COc1cc(CN2CCCCC2)ccn1` (stereo not drawn) [Lafutidine], the figures for the growth inhibition in assay [1] and in assay [2] were 21.8% and 20.8%, respectively.

With `CC(C)N(C[C@H]1O[C@@H](n2cnc3c(N)ncnc32)[C@H](O)[C@@H]1O)[C@H]1C[C@@H](CCc2nc3cc(C(C)(C)C)ccc3[nH]2)C1`, the results for the growth inhibition in assay [1] and in assay [2] were below 0% and 5.84%, respectively.

For the compound `CCCCN1CCCCC1C(=O)Nc1c(C)cccc1C` (stereo not drawn) [Bupivacaine HCl], the growth inhibition in assay [1] amounted to 30.4%; in assay [2], 24%.

As for `O=C(NCCO[N+](=O)[O-])c1cccnc1` [Nicorandil], the growth inhibition in assay [1] was determined as 48.5%; in assay [2], 26.1%.

For the compound `CCC[C@H](NC(=O)/C(C#N)=C/c1cccc(Br)n1)c1ccccc1` [Degrasyn (WP1130)], the growth inhibition is below 0% in assay [1] and 6.54% in assay [2].

As to `CCN(CC)CCNC(=O)c1c(C)[nH]c(/C=C2\C(=O)Nc3ccc(F)cc32)c1C` [Sunitinib Malate], the figures for the growth inhibition in assay [1] and in assay [2] were 39.3% and 28.3%, respectively.

With `CNCc1ccc(-c2cc(-c3nc(-c4ccc(S(=O)(=O)C(C)C)cc4)cnc3N)on2)cc1`, the results for the growth inhibition in assay [1] and in assay [2] were 60.8% and 48.2%, respectively.

Turning to `CNC(=O)c1ccc2cc([C@@]3(O)CCn4cncc43)ccc2c1` [TAK-700 (Orteronel)], the growth inhibition in assay [1] is 29.4%; in assay [2], 41.5%.

On to `NC(CO)C(=O)NNCc1ccc(O)c(O)c1O` (stereo not drawn) [Benserazide HCl], for which the growth inhibition in assay [1] was below 0%; in assay [2], 33.3%.

For the compound `C=CCn1c(=O)c2cnc(Nc3ccc(N4CCN(C)CC4)cc3)nc2n1-c1cccc(C(C)(C)O)n1`, the values for the growth inhibition in assay [1] and in assay [2] were 97.9% and 75.2%, respectively.

As for `CN1CCC[C@@H]1CCO[C@](C)(c1ccccc1)c1ccc(Cl)cc1` [Clemastine Fumarate], the growth inhibition in assay [1] is 47.3%; in assay [2], 20.6%.

With `CC(=O)O[C@]1(C(C)=O)CC[C@H]2[C@@H]3C=C(C)C4=CC(=O)CC[C@]4(C)[C@H]3CC[C@@]21C` [Megestrol Acetate], the growth inhibition came to 14.5% in assay [1] and 39.7% in assay [2].

Consider `CN(C[C@@H]1COCCO1)S(=O)(=O)Nc1ccc2ccc3ncc(-c4cnn(C)c4)cc3c(=O)c2c1`, for which the growth inhibition in assay [1] was 19.9%; in assay [2], 53.5%.

Consider `COC(=O)C1=C(C)NC(C)=C(C(=O)OC2CCCN(Cc3ccccc3)C2)C1c1cccc([N+](=O)[O-])c1` (stereo not drawn) [Benidipine HCl], for which the growth inhibition in assay [1] was 54.9%; in assay [2], 11%.

Regarding `CO[C@H]1C[C@@H]2CC[C@@H](C)[C@@](O)(O2)C(=O)C(=O)N2CCCC[C@H]2C(=O)O[C@H]([C@H](C)C[C@@H]2CC[C@@H](OCCO)[C@H](OC)C2)CC(=O)[C@H](C)/C=C(\C)[C@@H](O)[C@@H](OC)C(=O)[C@H](C)C[C@H](C)/C=C/C=C/C=C/1C` [Everolimus (RAD001)], the growth inhibition in assay [1] stood at 77.5%; in assay [2], 69.4%.

As for `CCN1CCCC1CNC(=O)c1cc(S(=O)(=O)CC)c(N)cc1OC` (stereo not drawn) [Amisulpride], the growth inhibition came to 11.6% in assay [1] and 33.3% in assay [2].

Turning to `O=c1cc(-c2ccc(O)cc2)oc2cc(O)cc(O)c12` [Apigenin], the growth inhibition in assay [1] and in assay [2] was below 0% each time.

On to `N#CC[C@H](C1CCCC1)n1cc(-c2ncnc3[nH]ccc23)cn1`, for which the growth inhibition in assay [1] was 15%; in assay [2], 35.1%.

On to `N[C@@H](CC(=O)N1CCn2c(nnc2C(F)(F)F)C1)Cc1cc(F)c(F)cc1F` [Sitagliptin phosphate monohydrate], for which the growth inhibition in assay [1] was below 0%; in assay [2], 11%.

Consider `C1=N/C2=N/c3ccc(OCCN4CCCC4)c(c3)COC/C=C/COCc3cccc(c3)C(=C1)N2` [Pacritinib (SB1518)], for which the growth inhibition came to 99.3% in assay [1] and 95.5% in assay [2].

As for `COc1cc(Nc2ncc(F)c(Nc3ccc4c(n3)NC(=O)C(C)(C)O4)n2)cc(OC)c1OC` [R406 (free base)], the growth inhibition in assay [1] stood at 27.6%; in assay [2] it was 28.3%.

Take `CC(C)CN(C[C@@H](O)[C@H](Cc1ccccc1)NC(=O)O[C@H]1CO[C@H]2OCC[C@H]21)S(=O)(=O)c1ccc(N)cc1` [Darunavir Ethanolate]: the growth inhibition in assay [1] was 32.6%; in assay [2], 11.5%.

Regarding `O=c1ncn2nc(Sc3ccc(F)cc3F)ccc2c1-c1c(Cl)cccc1Cl`, the results for the growth inhibition in assay [1] and in assay [2] were 21.2% and 43%, respectively.

Consider `O=C(c1ccc(F)cc1)C1CCN(CCn2c(=O)[nH]c3ccccc3c2=O)CC1` [Ketanserin], for which the figures for the growth inhibition in assay [1] and in assay [2] were below 0% and 21.5%, respectively.

Consider `NC(=O)c1ccc(-c2nc(-c3ccccn3)c(-c3ccc4c(c3)OCO4)[nH]2)cc1`, for which the figures for the growth inhibition in assay [1] and in assay [2] were 13.8% and 21.3%, respectively.

On to `CN1CCC(NC(=O)c2cc(-c3c(O)cc(O)cc3Oc3ccc([N+](=O)[O-])cc3)on2)CC1`, for which the growth inhibition amounted to 64% in assay [1] and 9.89% in assay [2].

For the compound `Cc1ccc(S(=O)(=O)n2c(N)nc3ccccc32)cc1` [ML130 (Nodinitib-1)], the growth inhibition in assay [1] and in assay [2] was 11.9% each time.

For the compound `Cc1cc(O)c2c(c1)C(=O)c1cccc(O)c1C2=O` [Chrysophanic Acid], the growth inhibition was below 0% in assay [1] and 32.7% in assay [2].

On to `COc1cc2ncnc(Nc3cccc(Cl)c3)c2cc1OC` [AG-1478 (Tyrphostin AG-1478)], for which the growth inhibition in assay [1] and in assay [2] was below 0% in each case.

Consider `Cc1ccccc1C(=O)Nc1ccc(C(=O)N2CCCC(O)c3cc(Cl)ccc32)c(C)c1` (stereo not drawn) [Tolvaptan], for which the growth inhibition in assay [1] came to 21.6%; in assay [2], 4.26%.

As for `CCNC(=O)[C@H]1O[C@@H](n2cnc3c(N)nc(NCCc4ccc(CCC(=O)O)cc4)nc32)[C@H](O)[C@@H]1O`, the values for the growth inhibition in assay [1] and in assay [2] were below 0% and 14%, respectively.

In the case of `O=[N+]([O-])c1ccc2c(c1)S(=O)(=O)C=C2` [Stattic], the growth inhibition in assay [1] turned out to be 79.2%; in assay [2], 36.5%.
